Experimental data published in PMC4336329 (PLoS ONE, 2015).
The whole screen tested about 310,000 compounds, of which about 14,000 (4.5%) showed an effect of 50% or more. The effect is printed as a negative number. The list shows a part of the results.

target: human ether-à-go-go-related gene (hERG) potassium channel (human, UniProt Q12809); assay: primary screen, population patch clamp on CHO cells stably expressing hERG
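Note: peak tail current of the secondary pulse compared with the same well before compound.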

Chain of human ether-à-go-go-related gene (hERG) potassium channel (Q12809 whole entry, looked up): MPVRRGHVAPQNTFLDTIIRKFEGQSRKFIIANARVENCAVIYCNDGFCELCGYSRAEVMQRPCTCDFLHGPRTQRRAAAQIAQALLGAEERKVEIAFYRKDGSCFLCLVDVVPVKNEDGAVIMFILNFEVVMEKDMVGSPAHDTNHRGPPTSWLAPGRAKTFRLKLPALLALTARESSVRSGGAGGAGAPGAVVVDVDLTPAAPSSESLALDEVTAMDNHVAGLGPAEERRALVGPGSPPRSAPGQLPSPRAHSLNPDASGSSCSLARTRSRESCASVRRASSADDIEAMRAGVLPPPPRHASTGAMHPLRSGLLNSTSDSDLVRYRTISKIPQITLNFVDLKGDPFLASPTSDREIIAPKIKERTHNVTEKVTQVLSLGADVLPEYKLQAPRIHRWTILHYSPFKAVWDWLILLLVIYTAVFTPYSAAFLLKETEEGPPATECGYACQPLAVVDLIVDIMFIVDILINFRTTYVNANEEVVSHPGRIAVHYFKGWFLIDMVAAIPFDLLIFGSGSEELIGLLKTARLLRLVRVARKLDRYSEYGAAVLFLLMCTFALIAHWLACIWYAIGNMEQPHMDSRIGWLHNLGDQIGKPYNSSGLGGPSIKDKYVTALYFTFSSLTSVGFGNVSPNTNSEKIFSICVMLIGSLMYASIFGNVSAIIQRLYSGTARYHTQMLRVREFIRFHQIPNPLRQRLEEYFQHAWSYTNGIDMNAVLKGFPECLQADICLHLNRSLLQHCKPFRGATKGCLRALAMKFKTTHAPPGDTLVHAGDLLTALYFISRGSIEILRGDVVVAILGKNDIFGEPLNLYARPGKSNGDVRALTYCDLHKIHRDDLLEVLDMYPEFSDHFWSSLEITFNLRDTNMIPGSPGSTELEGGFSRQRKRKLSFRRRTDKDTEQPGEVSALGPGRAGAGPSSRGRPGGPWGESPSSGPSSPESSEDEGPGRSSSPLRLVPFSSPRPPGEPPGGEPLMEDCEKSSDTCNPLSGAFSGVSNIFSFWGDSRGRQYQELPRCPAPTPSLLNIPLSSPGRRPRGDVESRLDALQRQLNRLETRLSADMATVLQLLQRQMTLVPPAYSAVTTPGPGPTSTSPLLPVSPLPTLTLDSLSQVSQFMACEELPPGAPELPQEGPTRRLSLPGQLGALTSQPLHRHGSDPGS

SMILES	hERG current change (%, negative = inhibition) at 10uM [%]
CCCc1nc(SCC(=O)N2c3ccccc3CC2C)c2c(C)c(C)sc2n1 (stereo not drawn)	14.1
O=C(CSC(=S)N1CCOCC1)Nc1ncc2c(n1)CC(c1ccco1)CC2=O (stereo not drawn)	4.95
O=C(NC1CC1)C1CCN(c2ncccn2)CC1	-2.31
O=c1[nH]n(-c2ccccc2Cl)c(=O)c2ccccc12	11.5
COc1ccc(-c2nnc(COc3ccc4ccccc4c3)o2)cc1OC	-3.08
Cc1ccc(NC2CCCN(C(=O)c3cn4cc(Cl)ccc4n3)C2)cc1C (stereo not drawn)	1.82
CN(CC(=O)NNC(=O)Cc1ccccc1F)S(=O)(=O)c1ccc(Cl)cc1	-8.76
CCC1(c2ccccc2)NC(=O)N(CC(=O)N(C)CC(=O)Nc2c(C)cccc2C)C1=O (stereo not drawn)	19
COc1cc(/C=N/NC(=O)C(=O)NCC2CCCO2)cc(Cl)c1O (stereo not drawn)	31.8
CC(C)NC(=O)NC(=O)COC(=O)c1ccc([N+](=O)[O-])cc1Cl	-25.1
CCOC(=O)c1c(NC(=O)CN2C(=O)CN(C)C2=O)sc(C)c1C	4.06
CC(=O)c1ccc(N2CCN(C(=O)CCCn3c(=O)[nH]c4ccccc4c3=O)CC2)cc1	15.3
CC(=O)C1=C(O)C(=O)N(CCC(=O)O)C1c1ccccc1Cl (stereo not drawn)	-6.52
Cn1nc(-c2ccc3c(c2)OCCO3)c2ccccc2c1=O	2.43
Cc1ccc(S(=O)(=O)N(CC(=O)N/N=C/c2ccco2)c2cc(Cl)cc(Cl)c2)cc1	-10.7
CCCc1nc(SCC(=O)NCc2ccco2)c2c(=O)n(C)c(=O)n(C)c2n1	0.943
O=C(Nc1cc(C(F)(F)F)ccc1-n1cncn1)c1ccc(Br)cc1	4.25
COc1ccc(C2C(C#N)=C(C)NC3=C2C(=O)CC(C)(C)C3)c(OC)c1 (stereo not drawn)	-6.3
COC(=O)c1cc(Sc2cccc(Cl)c2Cl)ccn1	-20.8
CCOc1ccc(N2CC(C(=O)Nc3ccc(S(=O)(=O)Nc4nccs4)cc3)CC2=O)cc1 (stereo not drawn)	13.6
O=C(NC1CC1)C1=C[C@@H](c2ccccc2)C[C@@H](OCCCCO)O1	9.71
COc1ccc(NS(=O)(=O)c2c(C(=O)N3CCCCCC3)c(C)n(C)c2C)cc1OC	17.4
Cc1ncc(CNC(=O)N(CCCl)N=O)c(N)n1.Cl	5.11
O=C1OC(C(=O)NCc2ccccc2)Cc2ccccc21 (stereo not drawn)	7.98
